Sequences with one replicate were seen in a single cluster, so their values are uncertain.
Test system: ATP
Assay: switch fluorescence ratio, 500 uM ATP over buffer (Cy3 cluster intensity, sum of 5 cycles each) (fold (ratio)); higher = stronger signal-on switching upon ATP binding; sequences stand for … in TCGTCGGCAGCGTCAGATGTGTATAAGAGACAGTTTTTTTTTTTTTTTTTTTTTTTTT…TC
Conditions: aptamer strand: ATP DNA aptamer (quencher-CACCTGGGGGAGTATTGCGGAGGAAGG + anchor), 100 nM annealed; ATP concentration: 500 uM; one replicate
How it was run: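 Per cluster, summed Cy3 intensity from the target cycles was divided by that from the buffer cycles to give the fluorescence ratio, then averaged per switch-domain sequence. Clusters outside 100-1000 RFU were excluded. The Cy3-labelled switching-strand clusters, on a modified Illumina MiSeq flow-cell, were annealed to 100 nM quencher-labelled ATP aptamer and imaged in selection buffer, then after 15 min with 500 uM ATP at 22 °C, for five cycles with NaOH stripping and re-annealing between them.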
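Further: ATP exposure 15 min at 22 °C before imaging.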

Sequence	switch fluorescence ratio
GAGAATCACC	1.03
TACCCTATTT	1.04
GCTAATGATA	0.994
ATGCACTGTT	1.02
TAAGTCCTGG	0.965
TCTTGTAGC	1.03
TTTTTGGTT	1.03
ACTACAAGA	1.04
ATCAAATTAC	1.06
GACGTTTGG	0.982
TCCATACCCT	1.05
CTATTTAAGT	0.988
CATGACCTCA	1.05
CAAAGGGTTC	1.04
TACAGTGCCA	1.02
CACACCACGA	1.49
AGAAGAGGAT	1
ATATGGCGAG	0.965
CAATTAAGCA	0.99
TCTGGGTGAG	1.02
GGTATTTGGA	0.977
TTCTTGTGTA	0.963
ATACTTGGTC	1.04
GCAGGTCCAT	0.998
GGTATATTTG	1.13
ACAGACTGGG	1.07

Sequence	switch fluorescence ratio
AGTGGCGAGT	0.988
ATTCTTTATA	0.974
TTTCGGTGTC	1.06
CGTCGTGAGA	1.01
TATCTGGCCC	0.989
GGGGGCGAGC	1.12
TAAATCACGA	1.48
ATAAAAGGCA	0.963
GAATTAACTT	1.05
TTAAAGATG	1.01
CGTGGGGG	0.989
CGGATCCTTG	0.979
GACTTGTGGC	1
CTAAGCTGCA	1.06
AGTGAAAAGG	0.986
CCTCGTCCAT	1.65
AAGAATGTCG	0.898
TGGTCCGAGA	1.02
ACTTTCTGCC	0.977
GATCCTGTTC	0.991
ACATTTTAGC	0.98
GCACCGCATA	1.95
GATGAAACGG	1.02
GATTTGGTTT	0.977
CTCGCGTGTC	1.03
CGAGATGTTT	0.938

Sequence	switch fluorescence ratio
TGATACATTT	1.02
ATACTTTGTT	0.984
TCTTTGCCTT	1.03
ACGGACATAG	0.993
TGGCAGTAGG	0.954
TTAGGCTCGT	1.01
ATCCGATGGG	0.996
GTCGGCCGGC	1.02
TAAGGAGCCG	1.01
ACGAAGCAGT	3.9
CTGCAATGTA	2.36
CTTCTTAATA	1.03
TAAGAGCTAT	1.03
GGAATGGATG	1.01
ACACGCCCGT	1.12
AGAGGGCGCC	1.03
TTTTAATGG	1.02
GGTGAGGGAA	0.995
CAGTATGTTA	1.02
GTTTTGTGG	0.971
GTGTTCTGCT	1.04
TAACGTT	0.999
TGCGCGTCTT	1.04
GCAAGGCCGA	1.04
ACTACCCGGA	1.04
AACTGCGGCA	1

Sequence	switch fluorescence ratio
TTACGGAGTT	1.07
TTGTGTTG	0.969
GTCAAATAGT	0.927
CTGTCTTAAT	1.01
CGGATGCAT	0.969
GGATTCCGCC	1.39
TGATATAGTC	0.996
AGGATGGGTC	1
AATTACTTAC	1.38
ACTGACACTT	1.23
ATAGGCCCGG	1.01
GTCCAGGGCC	1
TAGTCATGA	1.06
TGCGGTCTGA	0.993
TCAAACTCTG	0.994
CAACAATGAA	1.02
AACAGACTCG	0.945
ATTAAGTCAA	0.978
GTCAACAAGT	1.2
ATTGGAAACA	1.03
TTGATTAGAA	0.952
GGCGGGACCA	1.05
CACAGGTCTA	1.04
CGAGAAGGGG	0.999
GGGGGGCTG	0.998
GCCCTAGTCT	1.03

Sequence	switch fluorescence ratio
TCCGTCACGC	2.03
ACATCGACAG	1.1
GTGTAAAGAG	1
CAGCTGCACG	0.987
GGCCATAGTT	0.993
GTCACCATGG	1.06
ACGTTATTCG	1.03
GGACCCCCGC	1.33
CGACCTATAA	1.56
GGCACCAGGG	1.24
TCTCCCTCAT	1.12
GCATTCACGC	1.07
CCCGGGCGGC	0.981
TCCATGTAGT	1.05
TGGATTCGGT	0.971
GTTCGGAGAA	1
AGCTTAAAAT	1.01
GTGCTCATGC	0.995
AACTTCGGGC	1.04
CCTACTCATT	1.89
TAGGCACATC	1.09
GGGTTATGTA	0.977
TCGGCGGGGG	1.07
CTCCTGAGAC	2.15
AACCCCATTA	1.03
AGTGGGGACT	0.974

Sequence	switch fluorescence ratio
GAGGTTGAAT	0.998
CTGGTGCCTG	0.974
AGAGGGGGTC	0.968
ATCTAGGCCA	1
TTCCGGTAGC	1.33
TATCGATTGT	1.06
TCGGGGATAA	1.01
ATTCGAACCT	1.27
TTTACATGTT	1.06
ATCGTTGATA	0.978
TAAGCTCCTA	1.04
TAATTAATT	1.02
ACAGGGTAGG	0.989
TGTGCCCGGT	0.989
GGGAGTTCAT	1.02
AGTCGGCCCG	0.938
GTTTGCATCA	0.997
ATTAAACGCT	1.05
CCCCTAGAGA	1.07
GAAATCAAAG	1.01
GAGACGACTC	0.97
AGGCCGTGTA	0.977
CTTGTACCGC	1.22
ACTTTGCGAA	1.14
ATGTGAGA	1
GTGTGCCCAG	0.979

Sequence	switch fluorescence ratio
AAGTTCTAG	0.981
CTACACCTGT	1.02
ATCGAGAGTC	1.02
ATCAATGATC	0.957
GGCTTTAACG	0.999
TGGGCACAGT	1
CTCGATAAAG	0.981
CAAGAAAGTA	1.09
TTGTTGAGAC	1.01
CGGGTTATTT	0.977
GTGGGCATCT	0.964
ATGTGATCGG	0.994
CCGAGGCCTA	3.51
TCTATGAGG	0.978
ATCGACTAAG	1.02
ACGTGGCCTG	0.998
GGCTATC	1.02
GACTGAGCCA	1.07
GGTTGACCGT	0.949
CGGTCCAAGT	0.946
TAGTTCGGGA	0.977
TGGAAAAGGC	1.01
TGCAGGCCGT	0.978
TTTCGTGGCT	1.03
CCAGTGGGAG	1.03
AATAAAAGCA	1.08

Sequence	switch fluorescence ratio
ATAAACGAGT	0.94
GTTGTGTAGA	1.01
TGTGTGAAG	0.99
CCGTTGAGTT	1.03
ACGCCGAGGC	0.976
TTGGAGCTGT	0.927
TTACCCGCGG	1.04
TTTACGGGAC	1.24
AATGGTGAAA	1.01
TTAGGCGGAT	0.98
TTCGATGGG	0.996
AACATTTGAT	1.03
AATTTATTGA	1.05
GTCCGGCAGC	1.11
CCAAGACCGC	1.41
GGCGGGCAAC	1.01
ATTACTGGAG	1.03
TGCGACTCCA	1.22
GCAATTTGCC	0.996
